Assay results from PubChem BioAssay (NCI).
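A five-concentration, 48-hour dose response in 96-well plates underlies each endpoint, interpolated linearly between surrounding concentrations. Here, GI50 denotes the concentration required for 50% inhibition of growth. The concentration for full growth arrest is given as TGI.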

What follows are compounds tested on NCI-H322M lung (assay: growth of human tumour cells (NCI), 48 h).

Q: Which GI50 does the source give for `CNC(=O)c1cncc(/C=C/c2c(Cl)cccc2Cl)c1` here?
A: Its GI50 is over 25 µM.

Q: What about the TGI of the same compound?
A: Its TGI is over 25 µM.

Q: `O=C1/C(=C/c2ccc(Cl)cc2)Sc2scc(-c3cccc([N+](=O)[O-])c3)[n+]21` was tested. Which TGI did it give?
A: Its TGI is 30.9 µM.

Q: `NC(=S)N/N=C/c1ccc(OC(=O)COc2ccccc2Cl)cn1` was tested. Which TGI did it give?
A: Its TGI is over 100 µM.

Q: For `O=C(Cn1c2ccccc2c2ccncc21)N/N=C\c1ccc2ccccc2c1`, which GI50 is on record?
A: Its GI50 is 19.4 µM.

Q: And the TGI?
A: Its TGI is over 100 µM.

Q: With `CCCN(CCC)C(=O)c1c(Cl)c2cccnc2n2c(C)cnc12` as the compound, how does the TGI read?
A: The TGI was over 100 µM.

Q: `COc1cc2c(cc1OCCCCN1CCN(CCCCOc3cc4c(cc3OC)C(=O)N3CCC[C@H]3C=N4)CC1)N=C[C@@H]1CCCN1C2=O` was tested. Which TGI did it give?
A: The TGI was 0.746 µM.

Q: Which TGI does the source give for `COc1ccc(N2C(=O)C3c4[nH]c5ccc(OCc6ccccc6)cc5c4C4CCC(C(C)C)CC4C3C2=O)cc1` (centres undefined) here?
A: Its TGI is over 100 µM.

Q: With `O=C(O)CN=c1c2ccccc2n(O)c2ccccc12` as the compound, how does the TGI read?
A: The TGI was over 100 µM.

Q: For `C=C(CC)C[C@@H]1C[C@]2(C(=O)OC)c3[nH]c4ccccc4c3CCN2C1=O`, which TGI is on record?
A: Its TGI is 69.6 µM.

Q: `CN(C)c1ncnc2c1ccn2C1OC(CO)C(O)C1O` (centres undefined) was tested. Which GI50 did it give?
A: The GI50 was 0.589 µM.

Q: And the TGI?
A: Its TGI is 12.4 µM.

Q: For `COC1(Cc2ccccc2)C(=O)c2ccccc2N1C(C)=O` (centres undefined), which TGI is on record?
A: The TGI was over 100 µM.

Q: For `COc1cc(-c2oc3c(OC)c(O)cc(O)c3c(=O)c2OC)ccc1O`, which TGI is on record?
A: Its TGI is over 100 µM.

Q: How did the GI50 turn out when `COc1cc(NC(=O)c2cc(O)c(C/C=C(\C)CCC=C(C)C)c(O)c2)cc2c1O[C@]1(C)CC[C@@H](O)C(C)(C)[C@H]1C2` was run?
A: Its GI50 is 3.18 µM.

Q: And the TGI?
A: Its TGI is 14.8 µM.

Q: `C=C1C(=O)O[C@H]2[C@H]1CC/C(CNC(=O)/C=C/c1ccc(Cl)cc1Cl)=C\CC[C@@]1(C)O[C@@H]21` was tested. Which GI50 did it give?
A: Its GI50 is 2.49 µM.

Q: And the TGI?
A: Its TGI is 9.3 µM.

Q: Which GI50 does the source give for `CCc1nc(N)nc(N)c1C#CC(C)c1cc(-c2ccnc(C)c2)c2oc(C)nc2c1` (centres undefined) here?
A: The GI50 was under 0.026 µM.

Q: And the TGI?
A: The TGI was 14.4 µM.

Q: `c1ccc(CSC(SCc2ccccc2)c2ccc3c(c2)OCO3)cc1` was tested. Which TGI did it give?
A: Its TGI is over 10 µM.

Q: How did the TGI turn out when `Oc1ccccc1-n1nc2ccc3nonc3c2n1` was run?
A: The TGI was over 100 µM.

Q: Which TGI does the source give for `CC1=C(C(=O)Nc2ccccc2C)C(c2ccccc2C)C(C(=O)Nc2ccccc2C)=C(C)N1` here?
A: The TGI was over 100 µM.

Q: What does the source list for `Cc1cn(Cc2ccccc2CCl)c(=O)n(Cc2ccccc2CCl)c1=O`?
A: GI50: 2.43 µM; TGI: 5.7 µM

Q: With `CC1(C)CC2(C)ON=C(c3ccccc3)N2c2ccccc2N1` (centres undefined) as the compound, how does the TGI read?
A: Its TGI is over 100 µM.

Q: For `CN1CCCC(C(=O)OCC(=O)C2(O)CCC3C4CCC5=CC(=O)CCC5(C)C4C(O)CC32C)C1` (centres undefined), which TGI is on record?
A: The TGI was 66.2 µM.

Q: How did the TGI turn out when `C/C([O-])=C(/c1nc(-c2ccc([N+](=O)[O-])o2)no1)[n+]1cc(C)ccc1C` was run?
A: Its TGI is 27.5 µM.

Q: `COc1ccccc1Cn1[nH]c(=O)c2cc([N+](=O)[O-])ccc21` was tested. Which TGI did it give?
A: Its TGI is over 100 µM.

Q: With `O=C(O)CO/N=C1/C(c2c(O)[nH]c3ccccc23)=Nc2ccccc21` as the compound, how does the TGI read?
A: Its TGI is over 100 µM.

Q: `CNc1ncc2cc(Oc3ccc(F)cc3F)c(=O)n(C)c2n1` was tested. Which GI50 did it give?
A: Its GI50 is over 25 µM.

Q: And the TGI?
A: Its TGI is over 25 µM.

Q: With `CCOP(=O)(OCC)C(=C1C=C(C(C)(C)C)C(=O)C(C(C)(C)C)=C1)P(=O)(OCC)OCC` as the compound, how does the TGI read?
A: Its TGI is over 10 µM.

Q: What does the source list for `O=C1COCCN1c1ccc(NCc2cn(C(=O)c3ccc(Cl)cc3)c3ccccc23)cc1`?
A: GI50: 8.21 µM; TGI: > 100 µM

Q: With `COc1cc2nncc(SCc3ccc(Cl)c(Cl)c3)c2cc1OC` as the compound, how does the TGI read?
A: The TGI was over 100 µM.

Q: `O=c1cc(-c2ccc(O)cc2)oc2cc(O)cc(O)c12` was tested. Which TGI did it give?
A: Its TGI is over 100 µM.

Q: For `NS(=O)(=O)c1ccc(NC(=O)c2cccc3c(Nc4ccc(S(N)(=O)=O)cc4)c4ccccc4nc23)cc1`, which TGI is on record?
A: Its TGI is over 100 µM.

Q: With `CC1=C(C(=O)NC(C)(C)C)CC(C(=O)NC(C)(C)C)C(C)N1` (centres undefined) as the compound, how does the TGI read?
A: Its TGI is over 100 µM.

Q: With `NCCC1([N+](=O)[O-])CCNCC1` as the compound, how does the TGI read?
A: Its TGI is over 100 µM.

Q: Which TGI does the source give for `C=C(C)C(=O)O[C@H]1CC2=CC(CC(C)=C[C@H]3OC(=O)C(=C)C13)OC2=O` (some centres undefined) here?
A: Its TGI is over 100 µM.

Q: `CCOC(=O)NC(=S)NC(C)c1ccccc1` (centres undefined) was tested. Which TGI did it give?
A: The TGI was over 100 µM.

Q: How did the TGI turn out when `COc1ccc(OC)c(/C=N/N=C2\C(=O)Nc3c(Cl)cc(Cl)cc32)c1` was run?
A: The TGI was over 100 µM.

Q: `[O-][n+]1c2cc(CN3CCOCC3)c(CN3CCOCC3)cc2[n+]([O-])c2c(O)cccc21` was tested. Which TGI did it give?
A: Its TGI is 36.3 µM.

Q: Which results are given for `CC(=O)n1c(-c2ccc(Cl)c(Cl)c2)cn(-c2ccc(Cl)cc2)c1=O`?
A: GI50: 52.6 µM; TGI: > 100 µM

Q: Which TGI does the source give for `Cc1ccc(Nc2cn(COCc3ccccc3)c(=O)[nH]c2=O)cc1` here?
A: The TGI was over 100 µM.

Q: For `CCSC12CC3c4cccc5c4C(CN5C(=O)c4ccccc4)CC3(O1)N(C)C2=O` (centres undefined), which TGI is on record?
A: The TGI was over 100 µM.

Q: `Cc1cc(Cl)ccc1NC(=O)C(=O)Cc1occc(=O)c1O` was tested. Which TGI did it give?
A: The TGI was over 100 µM.

Q: `Oc1ccc(O)c2c1C1(Cl)C(Cl)=C(Cl)C2(Cl)C1(Cl)Cl` was tested. Which GI50 did it give?
A: Its GI50 is 3.63 µM.

Q: And the TGI?
A: Its TGI is 13.3 µM.

Q: With `COc1nc(OC)nc(Sc2ccc(Sc3ccc(Sc4nc(OC)nc(OC)n4)cc3)cc2)n1` as the compound, how does the TGI read?
A: Its TGI is over 100 µM.

Q: `CCSC(=O)C1(C)OC2CCCCC2C1=O` (centres undefined) was tested. Which TGI did it give?
A: Its TGI is over 100 µM.

Q: How did the TGI turn out when `O=c1c(Sc2ncccn2)c(Sc2ncccn2)cnn1CCl` was run?
A: Its TGI is 30.9 µM.

Q: With `Cc1ccc(S(=O)(=O)Nc2cc(Sc3ccccc3)c(O)c3ccccc23)cc1` as the compound, how does the GI50 read?
A: Its GI50 is 15.5 µM.

Q: What about the TGI of the same compound?
A: The TGI was 29.3 µM.

Q: `COC(=O)C1(C)OC(C)=NC1(C(=O)OC)C(=O)OC` (centres undefined) was tested. Which TGI did it give?
A: The TGI was over 100 µM.

Q: With `Cc1ccc(Nc2nc(C)c(C(/C=C/c3ccc4c(c3)OCO4)=N/Nc3ccc([N+](=O)[O-])cc3[N+](=O)[O-])s2)c([N+](=O)[O-])c1` as the compound, how does the TGI read?
A: The TGI was over 100 µM.

Q: What does the source list for `CC1=NN(C(=O)c2nn(-c3ccc(Cl)cc3)cc2O)C(=O)C1`?
A: GI50: 1.11 µM; TGI: > 100 µM

Q: What does the source list for `COc1ccc(CN=C(N)N=C(N)N)cc1OC`?
A: GI50: 369 µM; TGI: > 1000 µM

Q: With `O=C(NC1C=Nc2ccccc2NC1=O)c1ccccc1Cl` (centres undefined) as the compound, how does the TGI read?
A: Its TGI is over 100 µM.

Q: `O=C1OC(OC/C(Br)=C(/Br)COC2OC(=O)C(Cl)=C2Cl)C(Cl)=C1Cl` (centres undefined) was tested. Which TGI did it give?
A: The TGI was 51.7 µM.

Q: Which GI50 does the source give for `NS(=O)(=O)c1ccc(N2N=C(c3cccs3)CC2c2ccccc2O)cc1` (centres undefined) here?
A: The GI50 was 1.77 µM.

Q: What about the TGI of the same compound?
A: Its TGI is 11.8 µM.

Q: Which GI50 does the source give for `Nc1ccccc1C#C/C=C\C#Cc1ccccc1F` here?
A: The GI50 was 7.34 µM.

Q: What about the TGI of the same compound?
A: The TGI was 35.2 µM.

Q: `CC1=NN(c2ccccc2)C(=O)C1N=Nc1ccc(S(N)(=O)=O)cc1` (centres undefined) was tested. Which TGI did it give?
A: Its TGI is over 100 µM.

Q: Which TGI does the source give for `Cc1ccccc1NC(=O)CSc1nnc(Cc2ccccc2)o1` here?
A: The TGI was over 100 µM.

Q: How did the TGI turn out when `O=c1oc2c(ccc3c(O)cccc32)c2c1CCCC2` was run?
A: The TGI was over 100 µM.

Q: Which TGI does the source give for `CC(=O)Nc1nnc(S(=O)(=O)NC(=S)Nc2ccc(Cl)cc2)s1` here?
A: Its TGI is over 100 µM.

Q: Which GI50 does the source give for `CN(C)N=Nc1nn(C(=O)Nc2ccc(Cc3ccccc3)cc2)c2ccccc12` here?
A: The GI50 was over 100 µM.

Q: And the TGI?
A: The TGI was over 100 µM.

Q: How did the GI50 turn out when `c1ccc(/C(=N\Nc2ccc3ccccc3n2)c2ccccn2)cc1` was run?
A: Its GI50 is 0.292 µM.

Q: What about the TGI of the same compound?
A: Its TGI is 5.4 µM.

Q: `CCCOP(=S)(N1CC1)N1CC1` was tested. Which TGI did it give?
A: Its TGI is over 100 µM.

Q: `CCN1C(=O)CS/C1=N\NC(=O)CSc1nc2ccccc2c(=O)n1CC` was tested. Which TGI did it give?
A: The TGI was over 100 µM.

Q: With `CN(C)Cc1[nH]c2ccccc2c1C(=O)c1ccccc1` as the compound, how does the TGI read?
A: Its TGI is over 100 µM.

Q: With `COC(=O)Nc1nc2ccc(S(=O)(=O)c3ccc(NC(=O)Nc4cc(C(F)(F)F)ccc4F)cc3)cc2[nH]1` as the compound, how does the GI50 read?
A: The GI50 was over 25 µM.

Q: What about the TGI of the same compound?
A: The TGI was over 25 µM.

Q: `CCOC(=O)c1c(NC(=O)c2ccc(Br)cc2)sc2c1CCCC2` was tested. Which TGI did it give?
A: Its TGI is over 100 µM.

Q: For `Cn1c2ccccc2c2[nH]c3ccccc3c(=O)c21`, which TGI is on record?
A: Its TGI is over 100 µM.

Q: For `COc1cc(/C=C\c2ccc(Cl)cc2)cc(OC)c1OC`, which TGI is on record?
A: Its TGI is over 50.1 µM.

Q: What does the source list for `Cc1cc(Cl)ccc1Nc1nc(C(F)(F)F)ccc1C(=O)Nc1cccc(C(F)(F)F)c1`?
A: GI50: 2.78 µM; TGI: 14 µM

Q: For `O=C1C(NS(=O)(=O)c2ccccc2)=C(N(Cc2ccccc2)Cc2ccccc2)C(=O)c2ccccc21`, which TGI is on record?
A: The TGI was over 100 µM.

Q: How did the TGI turn out when `CN(C)CC1=Nc2cccc3cccc(c23)N1` was run?
A: The TGI was over 100 µM.

Q: How did the GI50 turn out when `O=C1c2ccn(CCCCN(CCO)CCO)c2C(=O)c2c1c(O)c1ccccc1c2O` was run?
A: Its GI50 is 6.84 µM.

Q: And the TGI?
A: The TGI was 23.8 µM.

Q: Which TGI does the source give for `O=C1Cc2ccccc2CCc2ccsc21` here?
A: The TGI was over 100 µM.

Q: Which TGI does the source give for `CC(C)c1cccc(C(C)C)c1NC(=O)C(=O)C1SC(=S)NC1=O` (centres undefined) here?
A: The TGI was over 100 µM.

Q: For `CCc1n[nH]c(=S)n1/N=C\c1ccc(-c2ccccc2[N+](=O)[O-])o1`, which TGI is on record?
A: The TGI was over 100 µM.
